# From PMC6919601, “Identification of Plasmodium dipeptidyl aminopeptidase allosteric inhibitors by high throughput screening” (PLoS ONE, 2019)
# Hit rate of the full screen: of about 110,000 compounds, about 230 (0.21%) showed an effect of 50% or more. The list shows a part of the results.
# Molecular target: DPAP1 (Plasmodium falciparum, UniProt Q8IIJ9)
# Assay: primary screen, percent inhibition; read by cleavage of a fluorogenic dipeptide substrate; higher = more effect of the substance
# Parameters: species or system P. falciparum D10 trophozoite lysates; single well
# 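Also: 30 min substrate incubation versus DMSO and 10 µM JCP410 controls.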
# DPAP1, sequence (Q8IIJ9 whole entry, looked up): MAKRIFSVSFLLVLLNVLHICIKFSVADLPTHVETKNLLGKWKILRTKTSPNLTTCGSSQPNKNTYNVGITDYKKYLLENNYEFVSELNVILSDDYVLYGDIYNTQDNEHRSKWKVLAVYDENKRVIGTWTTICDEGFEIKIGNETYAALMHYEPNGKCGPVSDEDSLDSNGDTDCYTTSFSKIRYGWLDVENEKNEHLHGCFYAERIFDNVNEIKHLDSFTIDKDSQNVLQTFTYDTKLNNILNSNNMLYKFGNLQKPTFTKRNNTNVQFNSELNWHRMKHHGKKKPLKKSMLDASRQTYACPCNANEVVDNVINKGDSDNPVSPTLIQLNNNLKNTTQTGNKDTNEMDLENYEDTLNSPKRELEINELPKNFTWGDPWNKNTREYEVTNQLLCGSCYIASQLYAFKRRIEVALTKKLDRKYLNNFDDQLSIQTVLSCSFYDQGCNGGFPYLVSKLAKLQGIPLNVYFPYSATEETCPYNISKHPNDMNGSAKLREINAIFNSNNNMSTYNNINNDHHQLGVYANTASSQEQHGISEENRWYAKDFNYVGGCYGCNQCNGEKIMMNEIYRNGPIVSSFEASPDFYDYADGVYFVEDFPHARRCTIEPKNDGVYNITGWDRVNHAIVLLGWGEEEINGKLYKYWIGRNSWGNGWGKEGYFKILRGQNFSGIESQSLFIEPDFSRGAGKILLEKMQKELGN
row,Compound,% Inhibition @ 10 uM
1,COc1cc(CN2CCCN(C)CC2)cc2c1OCO2,-6.27%
2,Cc1cccc(C)c1NC(=O)C(NC(=O)CN1C(=O)c2ccccc2C1=O)c1ccccc1 (centres unmarked),-8.3%
3,C=CCOc1ccc(CNC2CCCCC2)cc1OC,-1.63%
4,CCc1ccc(-n2nnc(-c3nsc(NC(=O)c4ccc(C)cc4)n3)c2C)cc1,-7.04%
5,COc1ccc(OC)c(CNCc2c(C(=O)O)n(Cc3ccccc3F)c3cc(OC)ccc23)c1,-1.38%
6,COC(=O)c1ccc(NC(=O)c2ccc(-c3ccccc3)cc2)cc1,-4.61%
7,CCCCOC(=O)CCNc1nnc(O)nc1O,-11.4%
8,CC(=O)N(C(C)=O)c1c(N2CCCC2)c2ccccc2oc1=O,12.6%
9,COc1cccc(-c2nnc3c4c5c(sc4ncn23)CCCC5)c1,-0.85%
10,COc1cc(Cc2nnc(C(=O)NC3CCCCCC3)o2)cc(OC)c1OC,-3.34%
11,CCN(CC)CCN1C(=O)C(O)=C(C(=O)c2ccc(F)cc2)C1c1ccc(C)o1 (centres unmarked),-17.3%
12,CSCCC(NC(=O)c1ccccc1)c1noc(-c2ccc(C)cc2)n1 (centres unmarked),-6.91%
13,CCCS(=O)(=O)c1nc(S(=O)(=O)c2ccc(C)cc2)c(N2CCCC2)s1,-2.25%
14,COc1cc(-c2nnc3n(Cc4ccc(C)cc4)c(=O)c4ccccc4n23)cc(OC)c1OC,0.00665%
15,CN(CCC#N)C(CNS(=O)(=O)c1ccc(Cl)cc1)c1ccccc1 (centres unmarked),-2.4%
16,CCCCN(C)CCNC(=O)Cn1ncc2c1-c1ccccc1OC2,-6.07%
17,COc1ccc(C2=NOC(C(=O)Nc3cccnc3Cl)C2)cc1 (centres unmarked),3.2%
18,CCOc1ccc(C2CC(c3ccccc3OC(F)F)n3nnnc3N2)cc1Cl (centres unmarked),4.86%
19,O=C(O)CCC(=O)NCCc1cccc(Cl)c1,2.32%
20,Cc1ccc2c(CNC3CCC(C)CC3)c(C(=O)O)n(Cc3ccccc3F)c2c1 (centres unmarked),-3.12%
21,O=C(CSc1nc(O)c2c3c(sc2n1)CCCC3)NCCCO,-4.76%
22,COc1ccc(OCC(=O)Nc2ccc(S(=O)(=O)NC3CCCCC3)cc2)cc1,-4.01%

row,Compound,% Inhibition @ 10 uM
1,Cc1cccn2c(=O)c3cc(C#N)c(=N)n(Cc4cccnc4)c3nc12,1.97%
2,C#CCn1c(-c2ccccc2)nc2ccccc21,4.3%
3,O=C(Nc1ccccc1NC(=O)c1ccc(Cl)cc1)c1ccc(Cl)cc1,3.01%
4,O=C(O)c1c(-c2ccccc2)nn(-c2ccccc2)c1C(=O)O,-5.5%
5,Cc1ccc(CN2C[C@@H]3C[C@H](C2)c2cccc(=O)n2C3)o1,-0.342%
6,O=C(Nc1c(-c2cccs2)nc2ccccn12)c1cccc(C(F)(F)F)c1,-2.74%
7,Cn1c2ccccc2n2cc(-c3ccc(F)cc3)cc12,-4.03%
8,CC(=O)c1c(C)nc2c(c1-c1cccc(Br)c1)C(=O)c1ccccc1-2,0.583%
9,Cc1ccc2oc(-c3ccc(C(=O)O)cc3)c(O)c(=O)c2c1,-1.69%
10,CC(C)C[C@H](NC(=O)OCc1ccccc1)C(=O)NC(C#N)C1CC1 (some centres unmarked),-0.0207%
11,Cc1ccc(-c2cc(C(=O)Nc3ccc(S(N)(=O)=O)cc3)c3ccccc3n2)cc1,5.85%
12,Cn1c(=O)c(SCc2ccccc2)c(O)c2ccccc21,2.32%
13,CC(Cc1ccc(F)cc1)N1CCN(c2ncccn2)CC1 (centres unmarked),-1.41%
14,CC1CCN(C(=O)c2ccc3c(O)nc4c(-c5ccccc5)nnn4c3c2)CC1,-0.326%
15,COc1ccc(-c2c(Cc3ccccc3)nn3c(O)c(Cl)c(C)nc23)cc1,-1.99%
16,COc1ccc(/C=C2/SC(Nc3ccc(C)cc3)=NC2=O)cc1OC,-1.49%
17,CNC(=O)c1ccc(C)c([N+](=O)[O-])c1,-3.26%
18,Cc1nn(-c2ccccc2)c(-n2cccc2)c1C(=O)N1CCC(C(=O)NCCN2CCCC2)CC1,1.8%
19,Cc1ccc(OC(C)C(=O)Nc2cccc(C)n2)cc1 (centres unmarked),-0.643%
20,COc1ccc(Br)cc1CNC1=NS(=O)(=O)C(c2ccc(C(C)C)cc2)=C1C,5.42%
21,CCN(CC)C(=O)COc1cc(C)c(Br)c(C)c1,0.205%
22,COc1ccc(N2CCN(Cc3cc(Br)cs3)CC2)cc1,2.13%

row,Compound,% Inhibition @ 10 uM
1,C/C(Cl)=C/Cn1c(SCC(C)C)nc2c1c(=O)[nH]c(=O)n2C,-1.08%
2,CC(=O)c1c(C)n(C)c2ccc(O)cc12,-7.98%
3,COc1ccc(S(=O)(=O)N(CC(=O)Nc2cccnc2)c2cccc(Cl)c2)cc1,2.17%
4,CC1(C)CC(=O)C2=C(C1)OC(N)=C(C#N)C2c1ccc(N2CCCC2)cc1 (centres unmarked),4.65%
5,Cc1ccccc1-c1nc(SCc2cc(=O)n3nc(C(C)C)sc3n2)n[nH]1,-7.24%
6,CCCCn1c(=O)[nH]c2c(oc3ccccc32)c1=O,4.85%
7,Cc1cccc2cc(C=C3C(=O)NC(=O)NC3=O)c(O)nc12,-5.28%
8,CCNS(=O)(=O)c1cc(C(=O)N2CCCCC2)ccc1OC,-1.98%
9,Cc1cccc(Oc2nc3ccccn3c(=O)c2/C=C(\C#N)S(=O)(=O)c2ccccc2)c1C,2%
10,COCC(=O)NC(C)c1nc2ccccc2n1Cc1ccccc1C (centres unmarked),-6.55%
11,O=C1CCCC2=C1C1(O)C(=O)c3ccccc3C1(O)O2 (centres unmarked),1.42%
12,CN(C)S(=O)(=O)c1cccnc1OCC(O)CNC(C)(C)C (centres unmarked),-7.56%
13,OC1CCN(Cc2cccc(Br)c2)CC1,-1.86%
14,COc1cc(C(=O)Nc2cccnc2)cc(OC)c1OC,-1.52%
15,Cc1cc(Cl)ccc1OCC(=O)Nc1cccc(F)c1,-2.17%
16,CCOC(=O)N1CCC(NCc2ccccc2C(F)(F)F)CC1,1.74%
17,CC1CN(CCc2ccccc2)CC(C)O1 (centres unmarked),-1.21%
18,COCC1=C(C(=O)OC)C(c2ccc(F)c(Oc3ccccc3)c2)C(C#N)=C(N)O1 (centres unmarked),-0.603%
19,CCN1CCC(N2CC=C(c3ccc(F)cc3)CC2)CC1,-0.0648%
20,CCCCN(Cc1ccccc1)S(=O)(=O)c1cccc2nsnc12,0.457%
21,CCOc1cc(/C=C2/C(=N)N3C(SC)=NSC3=NC2=O)ccc1OS(C)(=O)=O,-5.27%
